Reference: ChEMBL document CHEMBL1157539, “Thousands of chemical starting points for antimalarial lead identification” (Nature, 2010)
In all, about 13,000 compounds were measured (“IFI”: median about 4, highest 2% from about 17 on). This is one part of the list.

Assay: GSK_TCMDC: Inhibition Frequency Index (IFI). The number of non-kinase HTS assays where a compound showed > 50 % inhibition, expressed as a percentage of the number of such assays in which the compound was tested (-0 is zero)
Format: functional

| Compound | IFI [%] |
| --- | --- |
| CCN(CC)Cc1cccc(-c2cc3c(-c4ccc(C(=O)O)c(C(C)C)c4)ccnc3[nH]2)c1OC | -0 |
| CC(C)(C)c1ccc(CNC(=O)/C=C/c2ccc(-c3nc4cc(C(C)(C)C)ccc4[nH]3)cc2)cc1 | 1.48 |
| CN1CCN(CCCNCc2cccc(Nc3nccc(Nc4ccc(Oc5ccccc5)cc4)n3)c2)CC1 | 6.47 |
| CCOc1cc(C(=O)N[C@@H](Cc2ccccc2)[C@H](O)CNCc2cc(OC)cc(OC)c2)cc(N2CCCS2(=O)=O)c1 | 3.6 |
| CN(c1ccc(F)cc1)S(=O)(=O)c1ccc(Cl)c(C(=O)Nc2cccc(C#N)c2)c1 | 4.76 |
| Cc1cccc2nc(-c3cccc(-c4ccc(CNCc5cnn(-c6ccccc6)n5)cc4)c3)[nH]c12 | 1.64 |
| CCc1nc(N)nc(N)c1-c1ccc2c(c1)CCCC2 | 4.9 |
| Oc1ccc(CCNc2nc(N/N=C/C=C/c3ccc(Cl)cc3)nc(N3CCNCC3)n2)cc1 | 7.52 |
| Cc1cc(F)ccc1Nc1nc(N(C)c2ccccc2)c2cc(OCCN(C)C)ccc2n1 | 7.91 |
| COC(=O)c1cccc(NC(=O)NC2CCN(c3ccnc(NCc4ccc(F)cc4)n3)CC2)c1 | 5.88 |
| COc1cc(Nc2nccc(-c3c(-c4cccc(NC(=O)c5c(F)cccc5F)c4)nn4ncccc34)n2)cc(OC)c1OC | 9.42 |
| COc1cccc([C@@H](CC(=O)Nc2cc(C(F)(F)F)ccc2OC)Nc2ccc(C#N)c3ccccc23)c1 | -0 |
| CCn1cc2c3c(cc(C(=O)N[C@@H](Cc4ccccc4)[C@H](O)CNC4CCOCC4)cc31)N(C)S(=O)(=O)CC2 | 2.17 |
| Cc1cccc(CN2CCN(c3ncc(C(=O)NC4CC4)cc3Cl)CC2)c1 | -0 |
| COc1cc(F)c2nccc([C@@H](O)CN3CCC(NCc4cc5c(cc4F)OCCO5)CC3)c2c1 | 1.59 |
| COc1cc2nc(NCc3ccc(S(N)(=O)=O)cc3)nc(Nc3ccc(Oc4ccccc4)cc3)c2cc1OC | 5.15 |
| CNc1ccc(CNCc2ccc(-c3ccc(-c4nc5cc(C(F)(F)F)ccc5[nH]4)s3)cc2)cc1 | 16 |
| Cc1cccc2nc(-c3cccc(-c4cccc(CN5CCN(c6ccncc6)CC5)c4)c3)[nH]c12 | 10.6 |
| O=[N+]([O-])c1ccc(Oc2ccccc2CNCC2CCN(CC3CCCCC3)CC2)cc1 | 5.88 |
| O=C(Nc1cc(F)cc(F)c1)N1CCOC(CCN2CCC(c3ccccc3)CC2)(c2ccc(Cl)c(Cl)c2)C1 (centres undefined) | 8.11 |
| Cc1cc(-c2ccc(CN3Cc4ccccc4C3)cc2)ccc1S(=O)(=O)NCCN1CCCC1 | 13 |
| O=C(/C=C/c1ccc(Cl)c(Cl)c1)NCCC(CN1CCC(c2c[nH]c3ccccc23)CC1)c1ccccc1 (centres undefined) | 13.5 |
| CCC(C)c1ccc(NC(=O)Nc2ccnc3ccccc23)cc1 (centres undefined) | 10.2 |

| Compound | IFI [%] |
| --- | --- |
| c1ccc(Oc2ccc(Nc3ccnc4cc(-c5ccc(CNCCN6CCOCC6)o5)ccc34)cc2)cc1 | 7.86 |
| O=C(Nc1cccc(-c2cccc(-c3nc4ccccc4[nH]3)c2)c1)c1csnn1 | 3.64 |
| Cc1csc2nc(-c3ccccn3)nc(Nc3ccc4ncsc4c3)c12 | 7.75 |
| CCNc1cc(C(=O)N[C@@H](Cc2ccccc2)[C@H](O)CNCCc2ccccc2)cc(N2CCCCS2(=O)=O)c1 | 1.46 |
| Cc1cc(C)c2ncc(C(=O)O)c(O)c2c1 | 1.46 |
| N=C(N)NCCCCN(Cc1ccccc1)c1ccccc1 | 7.97 |
| Cc1cccc(-c2cccc(CNc3nc(NCCc4ccc(O)cc4)nc(N4CCNCC4)n3)c2)c1 | 12.7 |
| CCC(CC)OC(=O)C(C)c1cccc(C(=O)c2ccccc2)c1 (centres undefined) | 1.49 |
| COc1cccc(CNc2noc(-c3c(-c4ccccc4)noc3C)n2)c1OC | 1.56 |
| COc1ccc2nccc([C@@H](O)CN3CCC(NC(=O)/C(=C/c4ccccc4)c4ccc(-c5ccccc5)cc4)CC3)c2c1 | 0 |
| COCCSc1nc2scc(C)c2c(=O)n1Cc1cccc(OC)c1 | 1.35 |
| COC(=O)Cn1c2ccccc2c2c(N)c(C(=O)OC)c(C)nc21 | -0 |
| COc1cc(OC)cc(-c2nnc(Sc3ccc(C#N)c([N+](=O)[O-])c3)n2C)c1 | 2.13 |
| CNc1nc(N/N=C/c2cc3c(cc2[N+](=O)[O-])OCO3)nc(Nc2cccc(C(F)(F)F)c2)n1 | 2.14 |
| COc1ccc(Cc2c(Cl)nc3nc(N)nc(N)c3c2C)cc1 | 2.7 |
| CN1CCN(CCCN(Cc2cccc(-c3ccc(CNCCc4ccccc4)cc3)c2)C(=O)Nc2ccccc2)CC1 | 10.7 |
| Cc1ccc(Cc2cccc3nc(N)nc(N)c23)cc1 | 4.7 |
| Cc1nc(N)nc(N)c1OCCCCOc1ccccc1 | 2.9 |
| Cc1cc(Nc2ccnc(-c3ccc(Cl)cc3)n2)ccn1 | 2.19 |
| Fc1cc(Cl)ccc1Nc1ccnc2cc(-c3scnc3CNCCN3CCOCC3)ccc12 | 2.27 |
| COc1ccc2nc(C)cc(N/N=C/c3ccc([N+](=O)[O-])o3)c2c1 | 4.23 |
| Cc1cc(=NN=CC=Cc2ccccc2)c2cc(F)ccc2[nH]1 | 0.75 |
| CCCCCC(C)c1cc(O)c2c(c1)OC(C)(C)C=C2C1=CCN(Cc2ccccc2)CC1 (centres undefined) | 10.9 |

| Compound | IFI [%] |
| --- | --- |
| O=C(Nc1ccc(F)cc1F)NC1CCN(c2ccnc3cc(Cl)ccc23)C1 (centres undefined) | 3.08 |
| c1cnc2ccc(NCc3ccc(-c4ccc(CNC5CCCC5)cc4)cc3)cc2c1 | 8.33 |
| CN(C)Cc1cccc(-c2ccc(Nc3nccc(NCC(O)c4ccccc4)n3)cc2)c1 (centres undefined) | 17.2 |
| Cc1c(CCNC(=O)CCCN2CC(C)CC(C)C2)c2ccccc2n1C (centres undefined) | 0.75 |
| O=c1cc(NCCCNCc2cccc(SC(F)(F)F)c2)[nH]c2ccccc12 | 2.17 |
| CCN(CC)/C(=N/C(=N)NCc1cccc(Cl)c1)NCCCCCCN/C(=N\C(=N)NCc1cccc(Cl)c1)N(CC)CC | 13.8 |
| Cc1cc(NCCC(=O)Nc2ccccc2)nc(NCCc2ccc(F)cc2)n1 | 4.55 |
| CC(C)(CNCc1ccc(OC(F)(F)F)cc1)c1nc(-c2ccc(Cl)c(O)c2)c(-c2ccncc2)[nH]1 | 9.42 |
| CN(C)CCOc1ccc(-c2cc(-c3ccncc3)c(-c3ccc(Cl)c(O)c3)[nH]2)cc1 | 2.86 |
| O=C(NCC1CCC(C(=O)NCc2cccc(C(F)(F)F)c2)CC1)c1ccc(O)c(-c2ccc(Cl)c(Cl)c2)c1 (centres undefined) | 1.48 |
| O=C(NCCCN1CCCCC1)c1ccc(Nc2nccc(Nc3ccc(Oc4ccccc4)cc3)n2)cc1 | 7.3 |
| FC(F)(F)c1ccc2[nH]c(-c3cccc(-c4ccc(CNCc5ccccc5)cc4)c3)nc2c1 | 13.5 |
| Cn1cc(C2CCN(CCCCNC(=O)c3sc(-c4ccc(C(F)(F)F)cc4)nc3CO)CC2)c2ccccc21 | 7.96 |
| Oc1c(CN2CCCC(C(F)(F)F)C2)cc(Cl)c2ccccc12 (centres undefined) | 6.38 |
| Nc1nc(N)c2c(ccc3c2ccn3Cc2cc3c(cc2Cl)OCO3)n1 | 5.38 |
| Cc1cc(N[C@@H](Cc2ccccc2)C(=O)NCCc2ccccc2)nc(NCCOc2ccccc2)n1 | 7.5 |
| COc1ccc(Nc2nc(N/N=C/c3ccc(O)cc3)nc(Nc3ccc([N+](=O)[O-])cc3)n2)cc1 | 5.52 |
| CC(=O)Nc1ccc(CN(Cc2ccc(C)cc2)Cc2cccc(Oc3ccccc3)c2)cc1 | 0.71 |
| CC(C)c1ccc(NC(=O)c2ccc(CN3CCCN(CC4CCCCC4)CC3)cc2)cc1 | 15 |
| COCCN1CCC(NCC(C)(C)c2nc(-c3ccc(Cl)c(O)c3)c(-c3ccncc3)[nH]2)CC1 | 0 |
| Cc1cccc2nc(-c3cccc(-c4ccc(NC(=O)c5c[nH]cn5)cc4)c3)[nH]c12 | 1.87 |
| COc1ccc2nccc(N(C)CC3(O)CCN(CCc4ccc5c(c4)NC(=O)CS5)CC3)c2n1 | 5.67 |
| O=C(Cc1cn(-c2ccccc2)nc1-c1ccc(Cl)cc1)Nc1nccs1 | 2.56 |

| Compound | IFI [%] |
| --- | --- |
| Cc1cccc2nc(-c3ccc(-c4cccc(CN5CCN(CC6CCCN(C)C6)CC5)c4)s3)[nH]c12 (centres undefined) | 6.94 |
| CCOc1ccc2[nH]c(C)cc(=NN=Cc3cccc(C)n3)c2c1 | 1.46 |
| Cc1ccc(Nc2nc(N/N=C/c3cccc([N+](=O)[O-])c3)nc(Nc3ccccc3)n2)c(C)c1 | 2.4 |
| N#Cc1ccc2c(c1)CCN(CCC1CCC(NC(=O)/C=C/c3cnc4ccccc4c3)CC1)CC2 (centres undefined) | 6.57 |
| Cc1cccc(-c2cc3cc(Nc4ccnc5cc(-c6nccs6)ccc45)ccc3[nH]2)c1 | 3.03 |
| COc1cc2c(cc1N(C(C)C)S(=O)(=O)c1sc3ccc(Cl)cc3c1C)CCNCC2 | 15.8 |
| CCCc1cc(Cc2cnc(N)nc2N)cc(CC)c1O | -0 |
| COc1cc2nc(Nc3ccc4c(c3)OCCO4)nc(N)c2cc1OC | 1.67 |
| COC(=O)c1cccc(CNCc2ccc(-c3ccc(-c4nc5cc(C(F)(F)F)ccc5[nH]4)cc3)cc2)c1 | 9.62 |
| COc1ccc(CNC2CCN(C)CC2)cc1-c1ccc(S(=O)(=O)NCc2ccccc2)s1 | 12.8 |
| O=C(NCc1cccc(F)c1)Nc1cccc(-c2ccc(-c3nc4cc(C(F)(F)F)ccc4[nH]3)cc2)c1 | 6.93 |
| COc1cc(CNC[C@@H](O)[C@H](Cc2ccccc2)NC(=O)c2cc(OC(C)C)cc(N3CCCS3(=O)=O)c2)cc(OC)c1 | 2.16 |
| CCOC(=O)c1sc(C(C)Nc2ccccc2)nc1-c1ccccc1 (centres undefined) | 3.45 |
| N#Cc1ccc(-c2nc(CO)c(C(=O)NCCCCN3CCC(c4ccc5c(c4OCC(N)=O)CCCC5)CC3)s2)cc1 | -0 |
| O=S(=O)(Nc1ccc(-c2ccc(CN3CCCC3)cc2)cc1)c1cccc2cccnc12 | 3.33 |
| CCC(C)c1ccc(O)c(NC(=O)c2cncc(Br)c2)c1 (centres undefined) | 2.05 |
| O=C(/C=C/c1ccc(C(F)(F)F)cc1)NCCCCCN1CCCN(C(=O)Nc2ccc(Cl)c(C(F)(F)F)c2)CC1 | 18.8 |
| COc1ccc2c(=NN=Cc3ccccc3F)cc(C)[nH]c2c1 | 1.48 |
| O=C(/C=C/c1ccc(Cl)c(Cl)c1)NCCCCCN1CCCN(C(=O)Nc2ccc(Cl)cc2)CC1 | 4.03 |
| COc1cccc(CC(=O)N2CCC(n3c(C)nc4ccc(F)cc43)CC2)c1 | -0 |
